# Reference: publication PMC11995724, “Antibiotic target discovery by integrated phenotypic and activity-based profiling of electrophilic fragments” (Cell chemical biology, 2025)
# Out of some 3,200 compounds screened, about 110 (3.4%) showed an effect of 50% or more. The list shows a part of the results.
# Test system: T1, V. cholerae SAD30
# T1 construct: SAD30
# Parameters: species or system S. aureus MSSA476 (TSB) or V. cholerae SAD30 (LB); 384-well bacterial growth screen at 25 uM, OD600 relative to DMSO control
# Conditions: relative growth, OD600, LB; 25 µM; inhibitor
row,Compound,% of control remaining [%]
1,"N#Cc1cccc(NC2CCN(C(=O)CCl)C2)c1 (stereo not shown) [5-I22, 3-{[1-(2-chloroacetyl)pyrrolidin-3-yl]amino}benzonitrile]",111.464
2,"C=CC(=O)NCC1SCCS1 [1-C03, N-[(1,3-dithiolan-2-yl)methyl]prop-2-enamide]",105.232
3,"COc1ccccc1NC(=O)C(C#N)=Cc1ccc(C)s1 [8-B15, 2-cyano-N-(2-methoxyphenyl)-3-(5-methylthiophen-2-yl)prop-2-enamide]",79.4697
4,"CC(=O)N(c1ccccc1)c1nc(C=C(C#N)C(=O)NC2CC2)cs1 [9-A12, 2-cyano-N-cyclopropyl-3-[2-(N-phenylacetamido)-1,3-thiazol-4-yl]prop-2-enamide]",92.6581
5,"Cc1cccc(N2C(=O)C=CC2=O)c1C [10-H05, 1-(2,3-dimethylphenyl)-2,5-dihydro-1H-pyrrole-2,5-dione]",27.1186
6,"O=C(CCl)NC(c1ccccc1)c1nccs1 (stereo not shown) [5-M13, 2-chloro-N-[phenyl(1,3-thiazol-2-yl)methyl]acetamide]",96.8372
7,"CC(Cl)C(=O)N1Cc2ccccc2N(C)C[C@@H]1C (stereo partly drawn) [5-F15, 2-chloro-1-[(3S)-1,3-dimethyl-2,3,4,5-tetrahydro-1H-1,4-benzodiazepin-4-yl]propan-1-one]",88.7675
8,"N#CC(=Cc1ccc(-c2ccc(Cl)cc2)o1)C(=O)Nc1ccccc1 [8-O03, 3-[5-(4-chlorophenyl)furan-2-yl]-2-cyano-N-phenylprop-2-enamide]",86.9477
9,"C=CC(=O)N(Cc1ccc(Cl)cc1Cl)CC1CCC(O)C1 (stereo not shown) [1-B04, N-[(2,4-dichlorophenyl)methyl]-N-[(3-hydroxycyclopentyl)methyl]prop-2-enamide]",107.949
10,"C=CC(=O)NC(C)Cn1cncn1 (stereo not shown) [3-C11, N-[1-(1H-1,2,4-triazol-1-yl)propan-2-yl]prop-2-enamide]",102.147
11,"C=CC(=O)Nc1onc(C2CCCCC2)c1CC(C)C [1-P12, N-[3-cyclohexyl-4-(2-methylpropyl)-1,2-oxazol-5-yl]prop-2-enamide]",81.6977
12,"CC(Cl)C(=O)NCCc1c[nH]c2ncccc12 (stereo not shown) [7-C12, 2-chloro-N-(2-{1H-pyrrolo[2,3-b]pyridin-3-yl}ethyl)propanamide]",76.1275
13,"C=CC(=O)N1CCOCC1c1cc(F)cc(F)c1 (stereo not shown) [2-O16, 1-[3-(3,5-difluorophenyl)morpholin-4-yl]prop-2-en-1-one]",92.203
